Reference: the supplement of paper PMC6531468
The other results are listed elsewhere or left out. These are enrichments in a pooled selection; single values are uncertain. Each score is taken over the longer molecules that contain the sequence shown.

Tests used:
Test in all cases: 6-mer SELEX enrichment z-score vs GST control; IMP3 is the RNA-binding protein IGF2BP3; higher = more enriched by binding
IMP3 KH1-4 = details: construct: KH1-4 (164-579); SELEX round: R4
Procedure: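 SELEX-seq with GST-tagged IMP3 KH1-4 (Pro164-Lys579) and an N40 RNA pool, round 4. 6-mer z-score of sequence-tag enrichment normalised to the corresponding GST SELEX round; RNA k-mers written as DNA (T for U).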

IMP3 RRM1-2 = details: construct: RRM1-2 (1-163); SELEX round: R2
Chain of IMP3 RRM1-2 (chain, as listed by the source): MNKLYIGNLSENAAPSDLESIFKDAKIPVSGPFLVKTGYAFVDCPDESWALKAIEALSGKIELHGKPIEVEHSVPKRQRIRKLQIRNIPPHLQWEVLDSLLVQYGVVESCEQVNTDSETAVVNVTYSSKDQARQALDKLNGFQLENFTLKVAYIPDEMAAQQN
Procedure: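 SELEX-seq with GST-tagged IMP3 RRM1-2 (Met1-Asn163) and an N40 RNA pool, round 2. 6-mer enrichment z-score normalised to GST SELEX. RNA written as DNA (T = U).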

IMP3 full-length = IMP3 full-length (UniProt O00425); details: construct: FL IMP3 (1-579); SELEX round: R4
Chain of UniProt O00425 (O00425 whole entry): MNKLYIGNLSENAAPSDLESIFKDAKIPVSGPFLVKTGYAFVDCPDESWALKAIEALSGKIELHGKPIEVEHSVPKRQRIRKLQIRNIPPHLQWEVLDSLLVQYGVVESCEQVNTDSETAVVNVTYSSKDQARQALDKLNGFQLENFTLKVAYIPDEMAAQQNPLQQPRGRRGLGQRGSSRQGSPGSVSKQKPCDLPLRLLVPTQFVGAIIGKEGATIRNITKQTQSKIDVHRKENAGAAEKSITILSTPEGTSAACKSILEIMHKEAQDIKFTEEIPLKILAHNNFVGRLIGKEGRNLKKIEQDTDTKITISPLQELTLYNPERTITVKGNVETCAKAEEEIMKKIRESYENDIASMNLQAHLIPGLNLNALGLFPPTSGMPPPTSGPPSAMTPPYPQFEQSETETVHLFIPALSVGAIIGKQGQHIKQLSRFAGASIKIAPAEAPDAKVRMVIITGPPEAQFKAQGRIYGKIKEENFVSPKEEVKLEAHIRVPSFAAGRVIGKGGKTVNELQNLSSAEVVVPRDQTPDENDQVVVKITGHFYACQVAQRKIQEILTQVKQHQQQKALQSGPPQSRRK
Procedure: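 SELEX-seq with GST-tagged full-length IMP3 and an N40 RNA pool, round 4. Each 6-mer is scored as an enrichment z-score of sequence tags containing it, normalised to the matching GST SELEX round. RNA written as DNA (T = U).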

IMP3 KH1-2 = details: construct: KH1-2 (164-376); SELEX round: R4
Chain of IMP3 KH1-2 (chain, as listed by the source): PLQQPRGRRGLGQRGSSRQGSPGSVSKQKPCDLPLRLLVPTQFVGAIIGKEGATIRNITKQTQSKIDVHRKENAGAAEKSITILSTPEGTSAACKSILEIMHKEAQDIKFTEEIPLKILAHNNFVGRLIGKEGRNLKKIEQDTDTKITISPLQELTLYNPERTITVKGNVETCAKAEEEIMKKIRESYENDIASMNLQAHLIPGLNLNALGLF
Procedure: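 SELEX-seq with GST-tagged IMP3 KH1-2 (Pro164-Phe376) and an N40 RNA pool, round 4 (stringent 300/600 mM KCl washes). 6-mer z-score of sequence-tag enrichment normalised to the corresponding GST SELEX round; RNA k-mers written as DNA (T for U).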

Chain of IMP3 KH1-4 (chain, as listed by the source): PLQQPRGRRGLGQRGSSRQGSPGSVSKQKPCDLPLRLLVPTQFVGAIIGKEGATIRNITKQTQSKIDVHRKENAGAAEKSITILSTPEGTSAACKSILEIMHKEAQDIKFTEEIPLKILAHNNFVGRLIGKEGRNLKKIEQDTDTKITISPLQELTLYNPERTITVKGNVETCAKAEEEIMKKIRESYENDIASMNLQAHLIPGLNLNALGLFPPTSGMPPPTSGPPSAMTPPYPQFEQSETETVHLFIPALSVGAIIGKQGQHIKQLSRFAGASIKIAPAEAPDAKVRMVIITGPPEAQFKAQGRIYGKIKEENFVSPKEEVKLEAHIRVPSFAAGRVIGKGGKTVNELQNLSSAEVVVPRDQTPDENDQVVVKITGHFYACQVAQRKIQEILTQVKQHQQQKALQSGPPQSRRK

| Sequence | 6-mer SELEX enrichment z-score (IMP3 KH1-4) | 6-mer SELEX enrichment z-score (IMP3 RRM1-2) | 6-mer SELEX enrichment z-score (IMP3 full-length) | 6-mer SELEX enrichment z-score (IMP3 KH1-2) |
| --- | --- | --- | --- | --- |
| TCATAA | 1.37 | 1.36 | 1.53 | 1.6 |
| GCAGCG | -0.596 | 0.132 | 0.6 | -0.446 |
| ATTGGA | 0.272 | -0.067 | -0.091 | 0.104 |
| GGACAC | 0.433 | 0.333 | 0.623 | 0.307 |
| TGACAT | 0.657 | 0.108 | 0.454 | 0.514 |
| TGAGAA | 0.244 | -1.06 | -0.641 | 0.105 |
| AGAGTT | 0.12 | 0.055 | -0.008 | 0.047 |
| GATGTT | 0.254 | -0.013 | -0.107 | 0.119 |
| CGTCTC | -0.3 | 0.593 | 0.507 | -0.089 |
| ATGAGC | -3.08 | -0.347 | -1.82 | -2.97 |
| AATGGC | 0.763 | -0.106 | 0.381 | 0.396 |
| GAGCTC | -0.63 | 0.132 | 0.272 | -0.502 |
| GATCAA | 0.142 | 0.524 | 0.372 | -0.065 |
| CAAGGT | -0.376 | 0.058 | -0.014 | -0.429 |
| CGCTGG | -0.122 | 0.009 | 0.23 | -0.006 |
| ACTCAA | -1.37 | 0.481 | -0.769 | -1.19 |
| AACCCT | -1.62 | -1.12 | -1.93 | -1.66 |
| GCGACA | -0.333 | 0.023 | 0.791 | -0.382 |
| CTTATC | 0.365 | 0.393 | 0.065 | 0.298 |
| GAGTTG | -0.353 | 0.049 | -0.272 | -0.317 |
| CAATGA | 0.601 | -0.52 | -0.145 | 0.2 |

| Sequence | 6-mer SELEX enrichment z-score (IMP3 KH1-4) | 6-mer SELEX enrichment z-score (IMP3 RRM1-2) | 6-mer SELEX enrichment z-score (IMP3 full-length) | 6-mer SELEX enrichment z-score (IMP3 KH1-2) |
| --- | --- | --- | --- | --- |
| TCGGCT | 0.807 | 0.662 | 1.21 | 0.603 |
| TCAGAT | 0.714 | 0.647 | 0.836 | 0.723 |
| TTCGCG | -0.387 | 0.303 | -0.132 | -0.382 |
| CCACCG | -0.595 | -0.648 | -0.389 | -0.358 |
| CTGGAT | 0.329 | -0.034 | -0.017 | 0.176 |
| CGGGCT | -0.574 | 0.202 | 0.299 | -0.406 |
| AACTCA | -0.723 | 1.07 | -0.194 | -0.456 |
| GATCGC | -0.116 | -0.202 | -0.09 | -0.249 |
| ACATGG | 1.29 | 0.836 | 1.28 | 0.889 |
| CGAGCC | -3.19 | -0.711 | -1.02 | -2.79 |
| CAGTTC | 0.518 | 0.637 | 0.691 | 0.43 |
| TGTCAC | 0.1 | 0.27 | 0.356 | -0.143 |
| CCATCA | 0.788 | 2.86 | 2.43 | 0.861 |
| ACACCT | -0.705 | -0.029 | -0.617 | -0.661 |
| CGGCGC | 0.006 | 0.379 | 1.29 | 0.006 |
| TTTATC | 0.826 | 0.442 | 0.295 | 0.793 |
| CCAACT | -0.729 | -0.435 | -0.963 | -0.657 |
| AATAGC | 0.176 | -0.404 | -0.266 | 0.204 |
| CATTTG | 0.415 | 0.59 | 0.451 | 0.265 |
| GCTTAT | 0.392 | 0.245 | 0.134 | 0.399 |
| GTTACC | -0.675 | 0.03 | -0.402 | -0.673 |

| Sequence | 6-mer SELEX enrichment z-score (IMP3 KH1-4) | 6-mer SELEX enrichment z-score (IMP3 RRM1-2) | 6-mer SELEX enrichment z-score (IMP3 full-length) | 6-mer SELEX enrichment z-score (IMP3 KH1-2) |
| --- | --- | --- | --- | --- |
| CAATGG | 0.229 | 0.181 | 0.328 | 0.006 |
| ATGTGC | 0.587 | 0.047 | -0.106 | 0.24 |
| GTAGGG | 0.212 | 0.321 | 0.301 | 0.376 |
| GTCAAT | 0.482 | 0.275 | 0.571 | 0.166 |
| TGCCAT | 0.43 | 0.21 | 0.31 | 0.333 |
| GATTCT | 0.34 | 0.093 | -0.015 | 0.306 |
| ACCCGT | -0.977 | -0.542 | -0.694 | -0.953 |
| TCCTCA | 0.479 | 0.574 | 0.217 | 0.399 |
| GATAAG | 0.695 | -0.717 | -0.351 | 0.381 |
| CTCGTG | -1.05 | 0.192 | -0.479 | -0.858 |
| GTCCGC | 0.594 | 0.005 | 0.75 | 0.471 |
| ACTCAT | 0.081 | 1.47 | 0.603 | 0.156 |
| AATTAA | 1.62 | -0.924 | -0.344 | 1.56 |
| GACCTT | -0.604 | -0.531 | -0.772 | -0.604 |
| GAGCAC | -1.05 | 1.1 | 0.891 | -0.935 |
| AAAACA | -0.157 | 0.222 | -0.687 | 0.477 |
| ATAACT | 1.39 | -0.225 | -0.041 | 1.58 |
| AGGTAA | -0.165 | -0.267 | -0.247 | -0.276 |
| GGGGCT | 0.526 | 0.278 | 0.58 | 0.787 |
